The values that follow come from PubChem BioAssay AID1240 (Sanford-Burnham Center for Chemical Genomics, 2008).

The campaign covered roughly 50,000 compounds. About 800 (1.6%) showed an effect of 50% or more. The list shows a part of the results.

The target in the experiment is Bcl-2-like protein 10 (Homo sapiens) (UniProt Q9HD36). Description: TR3 peptide-Bcl-B binding displacers, biochemical primary FP assay, phenotype converters (AID 1240).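 Further: 0% = Bcl-B with tracer peptide and DMSO and 100% = tracer peptide lacking Bcl-B.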 Conditions: GST-Bcl-B / FITC-TR3 peptide fluorescence polarization; stronger effect = higher value; compound at 3.75 mg/L.
UniProt Q9HD36, sequence (Q9HD36 whole entry, looked up): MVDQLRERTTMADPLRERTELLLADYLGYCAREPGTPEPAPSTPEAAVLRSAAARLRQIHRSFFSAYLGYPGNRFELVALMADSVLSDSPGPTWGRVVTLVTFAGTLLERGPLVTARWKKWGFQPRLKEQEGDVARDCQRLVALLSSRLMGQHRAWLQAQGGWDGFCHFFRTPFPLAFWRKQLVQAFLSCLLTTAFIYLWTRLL
With `CCOC(=O)c1c(-c2ccc(C)cc2)csc1NC(=O)C1CC=CCC1C(=O)O` (stereo not drawn), the displacement is -6%. For `CCOC(=O)c1c(-n2c(C)cc(C=O)c2C)sc2c1CCCC2`, the displacement is 3.7%. In the case of `COc1ccc(-c2cc(C(F)(F)F)n3ncc(C(=O)NCCCN4CCOCC4)c3n2)cc1`, the displacement turned out to be 3.8%. As for `COc1ccc(Br)cc1/C=C1/SC(=S)N(Cc2ccccc2)C1=O`, the figure is 12.1%. As to `CC1=NN(c2ccccc2)C(=O)/C1=C\c1cccnc1`, the displacement is -8.9%. `COc1ccc(C)cc1NC(=O)C(=O)NCC1CCCO1` (stereo not drawn): the displacement was -15.6%. Take `Cc1ccccc1C(=O)Nc1sc2c(c1C(=O)N1CCN(C)CC1)CCCC2`: the displacement worked out at 4.5%.

Take `Cc1cc(NC(=O)c2ccccc2I)ccc1-c1cc2ccccc2oc1=O`: the displacement was determined as 14.9%. For the compound `CC(=O)C1C(c2ccccc2F)c2c(noc2C)CC1(C)O` (stereo not drawn), the displacement was -0.1%.

Regarding `NC(=O)c1c(NC(=O)CCC(=O)O)sc2c1CCCC2`, the displacement came to 8%.

As to `Cc1ccc(N(CC(=O)NCc2ccncc2)S(C)(=O)=O)cc1`, the displacement is 13.1%. Turning to `CCOC(=O)c1ccc(NC2C=CS(=O)(=O)C2)cc1` (stereo not drawn), the displacement came to 16.1%. Regarding `CCN(CC)c1ccc(C=Nc2ccc(I)cc2)c(O)c1`, the displacement turned out to be 5.3%.

For the compound `O=C(c1cc2cc(Br)ccc2oc1=O)N1CCCCCC1`, the displacement was -14.2%. In the case of `COc1ccc(NC(=O)Cc2ccc(Cl)cc2)cc1OC`, the displacement is -0.7%. As for `Cc1nnc(C)n1/N=C/c1cccs1`, the figure is 12.4%. `Cc1c(N2C(=O)c3ccccc3C2=O)cccc1[N+](=O)[O-]`: the displacement is 5.5%. On to `COc1cc(/C=C2\C(=O)NC(=O)N(c3cccc(C)c3)C2=O)c([N+](=O)[O-])cc1OC`, for which the displacement was 4.1%.

In the case of `CCOC(=O)CNC(=O)c1ccc(OC)cc1`, the displacement was 17.5%. As for `C=CCN1C(=O)/C(=C\c2ccc(-c3ccc(C)cc3Br)o2)C(=O)NC1=S`, the figure is -5.4%; as for `O=C(/C=C/c1ccc(-c2cc(Cl)ccc2Cl)o1)c1ccco1`, 126%; as for `COc1ccc(Cl)cc1C(=O)Nc1ccc(C)c(Cl)c1`, 7.1%. As for `Cc1nonc1NC1(O)C(=O)c2ccccc2C1=O`, the figure is -12.2%; as for `Cc1ccc(S(=O)(=O)N2CCCCC2C)cc1` (stereo not drawn), -7.8%; as for `Nc1ccc(C(=O)Nc2ccc(N)cc2NC(=O)c2ccc(N)cc2)cc1`, -14%. For `Nc1cn(C2OC(CO)C(O)C(O)C2O)c(=O)[nH]c1=O` (stereo not drawn), the displacement is 9.8%. Consider `O=C1NC(=O)/C(=C/c2ccc(-c3ccc(O)c(C(=O)O)c3)o2)S1`, for which the displacement is -50.7%. Turning to `COc1ccc(CCNC(=O)C(=O)Nc2cc(OC)ccc2OC)cc1`, the displacement is -14.1%. Take `COc1ccc(C(NC(=O)c2ccccc2F)c2ccc(OC)c(OC)c2)cc1OC`: the displacement was -5.6%.

For `Cc1cc(C)n(-c2nc3nonc3nc2Nc2cccc(C(F)(F)F)c2)n1`, the displacement turned out to be 6.4%.

In the case of `O=C(c1ccc(Cl)cc1)c1cc2ccccc2o1`, the displacement was 14.8%.

Consider `COc1cc(C=O)cc(Br)c1OCc1ccc([N+](=O)[O-])cc1`, for which the displacement is -7.9%. As for `CCc1ccc(CNCc2ccc3c(c2)OCO3)cc1`, the figure is -9.2%; as for `Cc1c(O)nc(Nc2nc(C)c3ccccc3n2)[nH]c1=O`, 9%; as for `COCCNC(=O)CN(c1ccc(Br)cc1)S(C)(=O)=O`, 2.8%.

On to `CC1=C(C(=O)OC(C)C)C(c2ccccc2Cl)C2=C(CCCC2=O)N1` (stereo not drawn), for which the displacement stood at 0%. As for `O=C1CC(c2ccccc2)CC(O)=C1C=NCCC(c1ccccc1)c1ccccc1` (stereo not drawn), the figure is 4.6%; as for `O=C(NN1C(=O)/C(=C\c2ccccn2)SC1=S)c1ccccc1`, -15.1%; as for `CCOc1ccc(/C=N\NC(=O)C2CC(=O)N(c3ccc(Br)cc3)C2)cc1` (stereo not drawn), -0.4%. As for `CCOc1cc(C=C2C(=O)NC(=O)NC2=O)ccc1OCCOCCOc1ccc(C)cc1`, the figure is -0.7%; as for `CCOC(=O)C(C)Sc1nnnn1-c1ccccc1` (stereo not drawn), 1%; as for `COc1ccc(/C=C/C(=O)NC2CCCCCC2)cc1OC`, 5.8%. With `CC1=NN(C(=O)c2ccc(Cl)cc2)C(O)(c2ccc(Cl)cc2)C1` (stereo not drawn), the displacement is 13.4%. `O=C(c1ccccc1F)N1CCN(c2c(Cl)cccc2[N+](=O)[O-])CC1`: the displacement is 10.3%. Regarding `COc1ccc(/C=C(/NC(=O)c2ccc(C)cc2)C(=O)N2CCCCCC2)cc1OC`, the displacement was -4.9%. Take `CN(C)/C=N/c1sc2c(c1C#N)CC(C)(C)NC2(C)C`: the displacement was -10.7%. Turning to `O=C(O)CCCC(=O)Nc1ccc(C(=O)O)cc1`, the displacement was -8.5%. With `O=C1/C(=C/C=C/c2ccccc2)SC(=S)N1C1CCS(=O)(=O)C1` (stereo not drawn), the displacement is 56.9%. In the case of `COC(=O)C1=C(O)/C(=C\c2ccc(C(=O)O)cc2)N=C1C`, the displacement was 12.2%. As for `O=C(COc1ccc(Cl)cc1Br)NCc1ccccn1`, the figure is -4.6%; as for `COc1ccc2c(c1)-c1c(ssc1=S)C(C)(C)N2C(=O)c1ccc(OC)c(OC)c1`, -5.4%. As for `CC(C)c1ccc(N2C(=O)NC(=O)/C(=C/c3ccc(O)c(O)c3)C2=O)cc1`, the figure is -20.3%; as for `COc1ccccc1Cc1noc(-c2ccccc2Cl)n1`, 0.7%; as for `CCCC(=O)c1c(Nc2ccccc2)cc(C)oc1=O`, 0.2%. As for `S=C(Nc1ccccc1)Nc1ccc(Br)cn1`, the figure is 16.4%; as for `O=C(C(=O)c1ccc(I)cc1)c1ccc(I)cc1`, 0.5%. `O=C1NC(=O)C(=Cc2cccc(OCc3ccc(F)cc3)c2)C(=O)N1`: the displacement came to 9.1%. For the compound `C=CCn1c(-c2ccncc2)n[nH]c1=S`, the displacement was -5.3%.

For the compound `COc1ccc(CNC(=O)c2cnn3c2NC(c2ccco2)CC3C(F)(F)F)cc1` (stereo not drawn), the displacement came out at 3%. Consider `C=CCOc1ccc2ccccc2c1/C=N/NS(=O)(=O)c1ccccc1`, for which the displacement is 13.1%. As for `CCc1ccc(OCC(=O)Nc2ccc(C)cc2[N+](=O)[O-])cc1`, the figure is 4.8%; as for `Cc1ccc(NCc2cccnc2)c(Br)c1`, 14.4%.

As for `COc1ccc(N2C(=O)S/C(=C\c3ccc(O)c(OC)c3)C2=O)cc1`, the displacement was -3.6%. With `O=C(Cc1ccc(-c2ccccc2)cc1)Nc1ccc(F)cc1`, the displacement was -7%.

In the case of `Cc1nc2ccccn2c(=O)c1N`, the displacement amounted to 6.2%.

Regarding `COc1ccc(CNc2ccc(C)c(C)c2)c(OC)c1`, the displacement is 6.3%.

Consider `COc1ccc(N2C(=O)NC(=O)/C(=C/c3cccc(C(F)(F)F)c3)C2=O)cc1`, for which the displacement was -13.4%. Take `O=c1c2c(nc3cc(-c4ccc(Br)cc4)[nH]n13)CCS2`: the displacement is -9.1%. `O=c1[nH][nH]c(=O)n1/N=C/c1ccccc1O`: the displacement turned out to be 2.2%.

Regarding `Cc1ccc(CNC(=O)CN(Cc2ccccc2)S(=O)(=O)c2ccc(C)cc2)cc1`, the displacement turned out to be 9.2%. As for `COc1ccccc1NC(=O)CC1C(=O)Nc2ccccc2N1S(=O)(=O)c1ccc(C)cc1` (stereo not drawn), the figure is 41.1%. Take `O=C(NCCCN1CCOCC1)c1nn2c(C(F)(F)F)cc(-c3cccs3)nc2c1Br`: the displacement turned out to be 2.9%. With `O=C(N=Nc1c(O)n(CN2CCCCCC2)c2ccc(Br)cc12)c1cccnc1`, the displacement is -0.4%.
